This is one part of the list.

The source of these data is article PMC7819943, “Rice protein-binding microarrays: a tool to detect cis-acting elements near promoter regions in rice”.

This assay deals with T1, OsWOX13 (Oryza sativa, UniProt Q5QMM3 1-267).
T1 sequence: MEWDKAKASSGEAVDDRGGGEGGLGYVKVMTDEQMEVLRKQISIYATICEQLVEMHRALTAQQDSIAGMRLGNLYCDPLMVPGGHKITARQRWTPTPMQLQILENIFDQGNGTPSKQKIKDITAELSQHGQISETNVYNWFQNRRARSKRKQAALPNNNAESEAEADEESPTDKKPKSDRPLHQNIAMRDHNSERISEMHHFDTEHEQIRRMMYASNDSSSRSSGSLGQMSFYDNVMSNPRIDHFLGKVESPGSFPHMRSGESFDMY
Nature of the assay: protein-binding microarray (RPBM); PBS, 2% BSA, 51.3 ng/ul salmon testes DNA, 50 uM zinc acetate, 200 nM TF, 25 C, 1 h; high values mean tight binding. The settings on record: protein: recombinant; tags: N-terminal polyhistidine and DsRed monomer fusion (pET32a); label: CyDye5-dUTP incorporated in the synthesized complementary strand; 3' TTTTT single-stranded linker to array surface; dsDNA, one strand shown. Put shortly:
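A custom Agilent array was converted to double-stranded form by primer extension with Cy5-dUTP and blocked with 2% BSA. Protein at 200 nM in PBS with 2% BSA, salmon testes DNA and 50 µM zinc acetate was applied for 1 h at 25 °C, followed by washing. The proteins were polyhistidine–DsRed N-terminal fusions of transcription factors, expressed in E. coli BL21-CodonPlus and Ni–NTA-purified. The binding signal is per-feature fluorescence intensity (arbitrary units) from an Axon 4000B scanner.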
Turning to “AGGAGGCGACGGCGGAGGAGGTGGTGGTGGTGGTGGTGGTCGGAGTCACCTAGTGCAG”, the binding signal is 3820 fluorescence intensity (a.u.).

For the sequence “TCATATCTGTAAATTATCAGTAGTTACTGTTAATTTGAGGCGGAGTCACCTAGTGCAG”, the binding signal was 5560 fluorescence intensity (a.u.).

With “AGTAGTTCTGATTGGTTGAAAATGTTTAGATTTTCATGTGCGGAGTCACCTAGTGCAG”, the binding signal is 34300 fluorescence intensity (a.u.).

Take “GGGGTGCTAATGAGACTAATTTTGTGTGGGGACCATTAAACGGAGTCACCTAGTGCAG”: the binding signal is 6800 fluorescence intensity (a.u.).

With “AGCACGATTACTAATCTTGACTGTTGAATTTGGTACAGATCGGAGTCACCTAGTGCAG”, the binding signal is 10500 fluorescence intensity (a.u.).

On to “GCCTCGAATTAATTCCTCGCCTTCCCCTATAAATACCGCGCGGAGTCACCTAGTGCAG”, for which the binding signal is 4940 fluorescence intensity (a.u.).

“ATAGTGATTTTAAAATATATATTTAATAAAATAGGAACAACGGAGTCACCTAGTGCAG”: the binding signal is 3170 fluorescence intensity (a.u.).

Regarding “CGGCGTTAATTGTCCTTCGATCCATTATTACAGAAACACTCGGAGTCACCTAGTGCAG”, the binding signal is 15400 fluorescence intensity (a.u.).

Regarding “ACAAATGATCATTTGCATTATCACCTTCTGAGTCTACTCACGGAGTCACCTAGTGCAG”, the binding signal is 5020 fluorescence intensity (a.u.).

For “AACATTGATTTTAACTGCGGCCCATTTGGACGCCCAATAACGGAGTCACCTAGTGCAG”, the binding signal was 4820 fluorescence intensity (a.u.).

Regarding “TTTATTGGAATATAATTAATTCAACATGGGACAATAGTTTCGGAGTCACCTAGTGCAG”, the binding signal is 7890 fluorescence intensity (a.u.).

For “GGCCATGCATTCAATCAACGACAAAACTATATAAAGCAACCGGAGTCACCTAGTGCAG”, the binding signal is 14300 fluorescence intensity (a.u.).

As for “GTCATAGATTGTTATATTTTAGAACGGAGGTAATACTAATCGGAGTCACCTAGTGCAG”, the binding signal was 4560 fluorescence intensity (a.u.).

For the sequence “AACCATAATTCTCTGATTAATCATAGTATAACAACATATACGGAGTCACCTAGTGCAG”, the binding signal was 6190 fluorescence intensity (a.u.).

For the sequence “AGACGATTGGACTCCTAACTGCAGCTTATGATTTTCTAAACGGAGTCACCTAGTGCAG”, the binding signal is 5240 fluorescence intensity (a.u.).

Consider “AATTATCATCAATTTAGGTCCATCCATCATTCACCGACCACGGAGTCACCTAGTGCAG”, for which the binding signal is 10700 fluorescence intensity (a.u.).

For “CCATTAACAATATTGGTTTGGATTGAAACTAATGTTGGCCCGGAGTCACCTAGTGCAG”, the binding signal is 6020 fluorescence intensity (a.u.).

With “TCAAATTTAAATTTAAATTCAAATATCTTATATATATATACGGAGTCACCTAGTGCAG”, the binding signal was 9410 fluorescence intensity (a.u.).

In the case of “GAAACTGCTAATAAATAACAATTAGTAATGGTGTAGTACTCGGAGTCACCTAGTGCAG”, the binding signal was 8130 fluorescence intensity (a.u.).

For “AACATGGAGAATATGCTAATTAGTAAAACATGTTGAAGTGCGGAGTCACCTAGTGCAG”, the binding signal was 3290 fluorescence intensity (a.u.).

For “TCTACAATTAATTAATTAAACCTCTCCATTGCAAGGGTTACGGAGTCACCTAGTGCAG”, the binding signal is 36900 fluorescence intensity (a.u.).

Turning to “TTACAATTTCTAAAATTAGTAATTCTGGATCATTTACGTGCGGAGTCACCTAGTGCAG”, the binding signal is 5760 fluorescence intensity (a.u.).

Take “CTTGACTTTGATCAAAACATCTTATAACCTTATTAAACGGCGGAGTCACCTAGTGCAG”: the binding signal was 4640 fluorescence intensity (a.u.).

Take “CTCCAGTTGATGATAAGTAATTATTAAGAGTAAGAAATAGCGGAGTCACCTAGTGCAG”: the binding signal is 4910 fluorescence intensity (a.u.).

Regarding “ACAATGACTGAGTTTTCAACCAACGACAATGGAACAGGATCGGAGTCACCTAGTGCAG”, the binding signal is 6420 fluorescence intensity (a.u.).

As for “TGAGATTGATGTTATCTATCCATTGTTATGAGCAATCACACGGAGTCACCTAGTGCAG”, the binding signal is 34600 fluorescence intensity (a.u.).

On to “CTGGATAATTAATTAGATGCATACGGTCAAAACACACACGCGGAGTCACCTAGTGCAG”, for which the binding signal is 51200 fluorescence intensity (a.u.).

In the case of “ATTAATTAGACTCAGAAGATTTGTCTCGCGATTTCCATGCCGGAGTCACCTAGTGCAG”, the binding signal was 40000 fluorescence intensity (a.u.).

As to “ATGAAATGTATTTATTTAATTATTTGTTAATGAGTTGTTTCGGAGTCACCTAGTGCAG”, the binding signal was 4870 fluorescence intensity (a.u.).

Take “AGTTAATTTGTCTACAGTTCTCATTCTCGCTTGTCGCCGTCGGAGTCACCTAGTGCAG”: the binding signal was 34500 fluorescence intensity (a.u.).

Consider “CTAGCTTAATTAGCTACGTATACCTTCCTTGTCGCCGGGTCGGAGTCACCTAGTGCAG”, for which the binding signal is 30900 fluorescence intensity (a.u.).

As for “ATTAATTAGGCTTAATAAATTCATCTCATAGTTTACAAGCCGGAGTCACCTAGTGCAG”, the binding signal is 17300 fluorescence intensity (a.u.).

On to “GCGGTCTTCAATTTATAAGTAATTAAGTACGGCCCTGGTACGGAGTCACCTAGTGCAG”, for which the binding signal was 15800 fluorescence intensity (a.u.).

Take “CTAGATTAATCCCTCTGTTTAAGCAGTCAAGCTAAACCCGCGGAGTCACCTAGTGCAG”: the binding signal is 15300 fluorescence intensity (a.u.).

Take “ATGATATAGATCTAATTAATCCATTAATAAATCATCACTTCGGAGTCACCTAGTGCAG”: the binding signal was 25400 fluorescence intensity (a.u.).

For “AAATTAACAATCAGATATAGGGGCAATACAGTAATTCACGCGGAGTCACCTAGTGCAG”, the binding signal is 4290 fluorescence intensity (a.u.).

As to “TTATTAATTATTTTATTTGTGACTTACTTTATTGTCTACACGGAGTCACCTAGTGCAG”, the binding signal is 27800 fluorescence intensity (a.u.).

In the case of “ATATACTCAACACAAATCAATCTCGCGATCCACTGGATTGCGGAGTCACCTAGTGCAG”, the binding signal is 4440 fluorescence intensity (a.u.).

On to “GAGTAACAAATTTGCTATAATTAAAGGATACTTTTCAGTTCGGAGTCACCTAGTGCAG”, for which the binding signal is 28700 fluorescence intensity (a.u.).

For the sequence “TGCTGATTAGACCAGCCCTATGGCGACGGTCAGATCGGTCCGGAGTCACCTAGTGCAG”, the binding signal was 36400 fluorescence intensity (a.u.).

In the case of “CTTTCCAATATATTGATGATTAATCCTTTTGCGTGTTCGTCGGAGTCACCTAGTGCAG”, the binding signal was 15300 fluorescence intensity (a.u.).

Consider “ATAAATAGACTTATTTGTCATCCACTTAAAGTGTCAAAACCGGAGTCACCTAGTGCAG”, for which the binding signal is 11600 fluorescence intensity (a.u.).
